# Laboratory results reported in PubChem BioAssay AID256 (DTP/NCI, 2004).
# Inconclusive results and toxic doses are left out. Some entries of the source have several records that differ or are many. This list holds those alone. An entry can have further records. The values listed for one entry are repeats (runs, samples, wells, individuals or studies).
# System: CD2F1 mice, L1210 leukemia ip, survival T/C
# Assay: NCI In Vivo Anticancer Drug Screen. Data for tumor model L1210 Leukemia (intraperitoneal) in CD2F1 (CDF1) mice
# Settings: higher = longer survival
# Procedure, shortened: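 Antitumor effect is scored in animals hosting a serially transplanted tumor. Values compare compound-dosed animals against vehicle-only controls as a simple quotient.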
smiles,measurement,setting,value
Nc1nc(=S)c2[nH]cnc2[nH]1,T/C,"endpoint: mean survival time, dose: 3.0 mg/kg/injection, schedule: Q01DX009 (ip), vehicle: acid diluted with saline","97 % of control, 166 % of control, 172 % of control"
same,T/C,"endpoint: mean survival time, dose: 6.0 mg/kg/injection, schedule: Q01DX009 (ip), vehicle: acid diluted with saline","86 % of control, 114 % of control, 160 % of control"
O=C(O)c1cc(C(=O)O)cc(S(=O)(=O)O)c1.[NH-]C1CCCCC1[NH-].[Pt+2],T/C,"endpoint: median survival time, dose: 6.25 mg/kg/injection, schedule: Q04DX003 (ip), vehicle: saline",112 % of control and 164 % of control
COc1cccc2c1C(=O)c1c(O)c3c(c(O)c1C2=O)C[C@@](O)(C(=O)CO)C[C@@H]3OC1CC(N)C(O)C(C)O1 (stereo partly drawn),T/C,"endpoint: mean survival time, dose: 2.0 mg/kg/injection, schedule: Q01DX005 (ip), vehicle: water",86 % of control and 182 % of control
same,T/C,"endpoint: mean survival time, dose: 12.0 mg/kg/injection, schedule: Q01DX001 (ip), vehicle: saline",117 % of control and 166 % of control
CC(=O)c1ccc([NH-])c([NH-])c1.[Cl][Pt+2][Cl],T/C,"endpoint: mean survival time, dose: 80.0 mg/kg/injection, schedule: Q01DX009 (ip), vehicle: distilled water + Tween-80",121 % of control and 162 % of control
COc1cccc2c1C(=O)c1c(O)c3c(c(O)c1C2=O)C[C@@](O)(C(O)CO)C[C@@H]3OC1CC(N(Cc2ccccc2)Cc2ccccc2)C(O)C(C)O1 (stereo partly drawn),T/C,"endpoint: median survival time, dose: 100.0 mg/kg/injection, schedule: Q01DX009 (ip), vehicle: water",101 % of control and 160 % of control
COc1ccc(OC)c(NC(=O)OCC(F)(F)F)c1,T/C,"endpoint: mean survival time, dose: 100.0 mg/kg/injection, schedule: Q01DX009 (ip), vehicle: saline with Tween-80",95 % of control and 195 % of control
same,T/C,"endpoint: mean survival time, dose: 400.0 mg/kg/injection, schedule: Q01DX009 (ip), vehicle: saline with Tween-80",97 % of control and 157 % of control
C=CC(CN1CC1)OC(C)=O (stereo not drawn),T/C,"endpoint: mean survival time, dose: 15.0 mg/kg/injection, schedule: Q01DX009 (ip), vehicle: saline",98 % of control and 152 % of control
CS(=O)(=O)OCCN(CCOS(C)(=O)=O)c1ccc(N=Nc2ccccc2C(=O)O)cc1,T/C,"endpoint: mean survival time, dose: 12.5 mg/kg/injection, schedule: Q01DX009 (ip), vehicle: Klucel (hydroxypropylcellulose) (HPC)",100 % of control and 174 % of control
CNC=O,T/C,"endpoint: mean survival time, dose: 1600.0 mg/kg/injection, schedule: Q01DX009 (ip), vehicle: saline",108 % of control and 150 % of control
CCCCCCCCCCCCCCCC(=O)Nc1ccn(C2OC(CO)C(O)C2O)c(=O)n1 (stereo not drawn),T/C,"endpoint: mean survival time, dose: 100.0 mg/kg/injection, schedule: Q01DX009 (ip), vehicle: saline",102 % of control and 173 % of control
CC1(C)OC2C3COP(=O)(N(CCCl)CCCl)NC(O3)C2O1 (stereo not drawn),T/C,"endpoint: mean survival time, dose: 15.6 mg/kg/injection, schedule: Q01DX001 (ip), vehicle: distilled water + Tween-80",98 % of control and 187 % of control
CCC1(OC(=O)CN)C(=O)OCc2c1cc1n(c2=O)Cc2cc3ccccc3nc2-1 (stereo not drawn),T/C,"endpoint: median survival time, dose: 60.0 mg/kg/injection, schedule: Q04DX002 (ip), vehicle: saline",116 % of control and 198 % of control
O=S(=O)(CCl)OCCCl,T/C,"endpoint: median survival time, dose: 25.0 mg/kg/injection, schedule: Q01DX009 (ip), vehicle: saline with Tween-80",111 % of control and 154 % of control
NC1CCCCC1N.O=C([O-])c1ccc(N=Nc2cccc([N+](=O)[O-])c2)cc1O.O=C([O-])c1ccc(N=Nc2cccc([N+](=O)[O-])c2)cc1O.[Pt+4],T/C,"endpoint: median survival time, dose: 25.0 mg/kg/injection, schedule: Q04DX003 (ip), vehicle: saline with Tween-80",91 % of control and 361 % of control
Nc1cc2[nH]cnc2c(=O)[nH]1,T/C,"endpoint: mean survival time, dose: 200.0 mg/kg/injection, schedule: Q01DX009 (ip), vehicle: suspension in saline",95 % of control and 150 % of control
Nc1nc(Cl)c2[nH]cnc2n1,T/C,"endpoint: mean survival time, dose: 100.0 mg/kg/injection, schedule: Q04DX003 (ip), vehicle: saline with Tween-80",100 % of control and 152 % of control
O=NNc1cnccn1,T/C,"endpoint: median survival time, dose: 66.67 mg/kg/injection, schedule: Q01DX009 (ip), vehicle: water",121 % of control and 185 % of control
O=C(O)C(O)C(O)C(OC1OC(CO)C(O)C(O)C1O)C(O)CO.O=C(O)C(O)C(O)C(OC1OC(CO)C(O)C(O)C1O)C(O)CO.[NH-]C1CCCCC1[NH-].[Pt+2] (stereo not drawn),T/C,"endpoint: median survival time, dose: 100.0 mg/kg/injection, schedule: Q04DX003 (ip), vehicle: saline",97 % of control and 195 % of control
NC1CCCCC1N.O=S(=O)([O-])c1cccc(S(=O)(=O)[O-])c1.[Pt+4],T/C,"endpoint: median survival time, dose: 3.12 mg/kg/injection, schedule: Q04DX003 (ip), vehicle: saline with Tween-80",124 % of control and 162 % of control
same,T/C,"endpoint: median survival time, dose: 50.0 mg/kg/injection, schedule: Q04DX003 (ip), vehicle: saline with Tween-80",112 % of control and 160 % of control
